Hit rate of the full screen: of about 50,000 compounds, about 800 (1.6%) showed an effect of 50% or more. The list shows a part of the results.
The molecules below were run against Bcl-2-like protein 10 (Homo sapiens) (UniProt Q9HD36) (assay: TR3 peptide-Bcl-B binding displacers, biochemical primary FP assay, phenotype converters (AID 1240;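 further: 0% = Bcl-B with tracer peptide and DMSO and 100% = tracer peptide lacking Bcl-B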)). Conditions: GST-Bcl-B / FITC-TR3 peptide fluorescence polarization; stronger effect = higher value; compound at 3.75 mg/L.
Chain of UniProt Q9HD36 (Q9HD36 whole entry, looked up): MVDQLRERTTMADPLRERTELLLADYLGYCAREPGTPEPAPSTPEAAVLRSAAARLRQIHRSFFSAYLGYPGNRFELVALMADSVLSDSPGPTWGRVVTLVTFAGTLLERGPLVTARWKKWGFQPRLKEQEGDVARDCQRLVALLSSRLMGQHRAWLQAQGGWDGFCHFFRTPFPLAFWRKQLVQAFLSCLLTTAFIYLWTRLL

SMILES | displacement [%]
O=C(Cn1c(O)c(N=NC(=O)C(=O)NCc2ccccc2)c2ccccc21)Nc1ccccc1 | -2.3
CCSc1nnc2n(-c3ccc(OC)cc3)c(=O)c3c4c(sc3n12)CCCC4 | 119
COCCOC(=O)C1=C(C)NC2=C(C(=O)CCC2)C1c1ccc([N+](=O)[O-])cc1 (stereo not drawn) | 5.9
Cn1ccc(C(=O)N/N=C/c2cccc(OCc3ccccc3)c2)n1 | 4.1
O=C(NCS(=O)(=O)c1ccccc1)c1ccccc1 | 4.9
CCN(CC)c1ccc(NC(=O)COc2ccc(C)cc2C)cc1 | 5.6
COc1ccc(-c2nc(-c3ccc(F)cc3)no2)cc1OC | -7.7
C=CCn1c(-c2ccccc2C)n[nH]c1=S | -1.6
COCCNC(=O)C(=O)Nc1ccccc1 | 7.5
O=C(N/N=C/c1ccc[nH]1)c1sc2ccccc2c1Cl | -5.4
O=C(O)/C=C\C(=O)Nc1ccc(Nc2ccccc2)cc1 | -1.2
CN(C)C(=S)NC(=O)C12CC3CC(C)(CC(C)(C3)C1)C2 | -7.4
CCOC(=O)C1=C(C)NC(=O)CC1c1ccc([N+](=O)[O-])cc1 (stereo not drawn) | -4.1
CCOC(=O)c1c(-c2ccc(C3CCCCC3)cc2)csc1N | 0.7
CSc1nc(-c2ccccc2)nc2[nH]ccc(=O)c12 | 110
O=C(N/N=C/c1ccccc1F)C(=O)N1CCCC1 | 9.8
O=C(CC(=O)Nc1cccc(C(F)(F)F)c1)Nc1cccc(C(F)(F)F)c1 | -6.9
O=C(O)CCCCCN1C(=O)C(=O)/C(=C(/O)c2ccc([N+](=O)[O-])cc2)C1c1ccccc1Cl (stereo not drawn) | -0.8
CCCCOc1ccccc1C=C1C(=O)NC(=S)NC1=O | 5.7
COC(=O)c1ccccc1NC(=O)CSc1nnc(-c2cccc(F)c2)n1-c1ccccc1 | -1.1
Cc1ccccc1NC(=O)CSc1nnc(C)c2ccccc12 | 6.5
CC(C)C(NC(=O)CN(c1cccc([N+](=O)[O-])c1)S(=O)(=O)c1ccccc1)C(C)C | 11.1

SMILES | displacement [%]
CCNC(=O)C(=O)Nc1ccccc1C | 6.5
COCCOC(=O)c1ccc(NC(=O)c2ccc(C(C)(C)C)cc2)cc1 | 11.1
O=C(O)Cn1c(SCCOc2ccc(Cl)cc2)nc2ccccc21 | 9
O=C(Cn1cnc([N+](=O)[O-])n1)Nc1ccc(Br)cc1 | 1.4
CCn1c2ccccc2c2cc(NC(=O)c3cccc(C)c3)ccc21 | 3.9
N#C/C(=C/c1ccc(/C=C(\C#N)C(N)=O)cc1)C(N)=O | 6.1
CC(C)(C)C1CCc2c(sc(NC(=O)c3ccncc3)c2C(N)=O)C1 (stereo not drawn) | -4
COc1cc(Br)c(/C=C2/C(=O)N(c3ccc(C)cc3)N=C2C)cc1OC | -5.3
Oc1[nH]c2ccccc2c1N=Nc1nc(-c2ccccc2)c2cc(Cl)ccc2n1 | 24.4
Clc1ccc(N2CCN(N=Cc3cccc(Cl)c3)CC2)cc1 | -11.5
CCN1C(=O)/C(=C\c2cn(Cc3ccccc3Cl)c3ccccc23)SC1=S | 34.2
CCOc1cc(C(=O)Nc2nc3ccccc3[nH]2)cc(OCC)c1OCC | -9.6
Cc1ccc(C(O)(c2ccccc2)c2nc3ccccc3n2C)cc1 (stereo not drawn) | -1
CCOC(=O)c1cc(-c2ccc(N)cc2)nc2ccc(Br)cc12 | -6.1
COC(=O)c1cc(NC(=O)c2cc(-c3cccc(OC)c3)nc3ccccc23)cc(C(=O)OC)c1 | 8.2
CCN(CC)CCn1c(SCc2ccccc2)nc2ccccc21 | -4.7
Cc1ccc(C(=O)Oc2ccc(/C=C3\SC(=S)NC3=O)cc2)cc1 | 13.6
COc1ccc(-c2cc(=O)n3[nH]c(-c4ccc(C)cc4)c(C)c3n2)cc1 | 12.8
CCc1ccc(NC(=O)CSc2ccccn2)cc1 | 0.1
O=C(NC(=S)NCc1ccccn1)c1ccc([N+](=O)[O-])cc1 | -7.3
CCCOc1ccc(C(=O)Nc2ncc(Cc3cccc(Cl)c3)s2)cc1 | -11.3
Cc1cc(C)nc(/N=C(/N)Nc2ccc(Cl)cc2[N+](=O)[O-])n1 | 2.1

SMILES | displacement [%]
O=C(CSc1nc2ccccc2s1)N1c2ccccc2Sc2ccccc21 | -8.5
CC(=O)Nc1ccc(S(=O)(=O)NCc2cccnc2)cc1 | -0.9
Cc1ccc(S(=O)(=O)N/N=C/c2ccc(OC(=O)c3ccccc3[N+](=O)[O-])cc2)cc1 | 1.4
O=C1C(=O)N(c2cccnc2)C(c2cccc([N+](=O)[O-])c2)/C1=C(\O)c1ccc(Cl)cc1 (stereo not drawn) | -15.1
C=CCN1C(=O)/C(=C\c2cc(Br)c(O)c(OCC)c2)C(=O)NC1=S | -12.5
Cc1cc(-c2ccc(NC(=O)c3cccnc3)c(C)c2)ccc1NC(=O)c1cccnc1 | 9.8
CC1=NN(C(=O)CSc2ccccn2)C(C)(O)C1 (stereo not drawn) | 13.6
O=C(NCCO)C(=O)Nc1ccccc1 | 11.1
CCOc1ccc(-c2cc(C(=O)O)c3cc(Br)ccc3n2)cc1 | -7.2
CCOc1cc(/C=C2\C(=O)NC(=O)N(c3ccc(Cl)cc3)C2=O)cc(Br)c1OC | 6.4
CC(=O)NC1=NN(C(C)=O)C(C)(CCS(=O)(=O)c2ccc(Br)cc2)S1 (stereo not drawn) | 0.1
CCCC(=O)Nc1nc(-c2ccccc2)cs1 | -5.5
COc1ccc(CNC(=O)CSCc2cccc(Br)c2)cc1 | 0.5
O=C1C(Cl)=C(Nc2ccccc2)C(=O)N1c1cccc(Cl)c1 | -1.3
Cc1[nH]n(-c2ccccc2)c(=O)c1C=Nc1ccc(S(=O)(=O)N(C)C)cc1 | 3.8
Cc1ccc(-c2nc(-c3ccc(F)cc3)no2)cc1 | 1.4
CC(=O)NC1=NN(C(C)=O)C(C)(c2ccccc2)S1 (stereo not drawn) | 13.3
CCOC(=O)C1C(=O)N(C(=O)c2cncc(Br)c2)CC1c1ccccc1 (stereo not drawn) | -0.6
Oc1oc(-c2ccccc2)nc1C=Nc1ccc(Cl)c(Cl)c1 | 2.4
COc1ccc(/C=C/C(=O)c2ccc(C)cc2)cc1[N+](=O)[O-] | -2.1
Cc1cc(C)c(NC(=O)C(c2ccccc2)c2ccccc2)c(C)c1 | -0.5
COc1cc(OC)cc(C(=O)N2CCN(Cc3ccco3)CC2)c1 | 3.7

SMILES | displacement [%]
CCSc1nnc(NC(=O)c2ccc(Cl)c(Cl)c2)s1 | 2.5
OCCCNCC(O)Cn1c2ccccc2c2ccccc21 (stereo not drawn) | -13.4
O=C(CN(c1ccc(F)cc1)S(=O)(=O)c1ccccc1)NCCSc1ccccc1 | -10.4
Cc1oc2ccc(OCc3c(F)cccc3Cl)cc2c1C(=O)O | 11.7
COC(=O)C1=C(C)NC2=C(C(=O)c3ccccc32)C1c1ccc(OCc2ccc(Cl)cc2Cl)c(OC)c1 (stereo not drawn) | -0.2
O=C1NC(=O)N(c2cccc(Br)c2)C(=O)/C1=C/c1ccc(O)cc1 | -0.9
CC(C)(C)c1ccc(-c2nc(-c3ccc(F)cc3)no2)cc1 | -4.4
CC12CCC(C(=O)N(c3cccc(F)c3)C1=O)C2(C)C (stereo not drawn) | -1.1
COc1ccc(N(Cc2ccc(C(=O)NC3CCCC3)cc2)S(=O)(=O)c2ccccc2)cc1 | -14.5
CC1=C(C(=O)Nc2ccccc2C)C(c2ccc(F)c(F)c2)C2=C(CC(C)(C)CC2=O)N1 (stereo not drawn) | 8.8
Oc1ccc(C(=S)N2CCOCC2)cc1 | 12.8
COC(=O)CNc1cccc(C(=O)O)c1 | 6.5
CC(=O)c1c(C)oc2c(Br)cc(NS(=O)(=O)c3ccc(Cl)cc3)cc12 | -4.2
COC(=O)c1ccc(-n2c(C)cc(C=C3C(=O)NC(=S)NC3=O)c2C)cc1 | 24.8
CCCOc1cccc(C(=O)Nc2cccc(-c3nc4ccccc4[nH]3)c2)c1 | -2.5
CC(C(=O)NCCCN1CCOCC1)(c1ccccc1)c1ccccc1 | 9.1
Cc1ccc(N(Cc2ccc(C(=O)N/N=C/c3cc(Br)c(C)o3)cc2)S(C)(=O)=O)cc1C | -39.4
CCC(Sc1nc(C)cc(C)n1)C(=O)Nc1ccc(S(N)(=O)=O)cc1 (stereo not drawn) | -8.7
COc1ccc(NC2=CC(c3cccc([N+](=O)[O-])c3)N(c3ccc(OC)cc3)C2=O)cc1 (stereo not drawn) | 5.9
COc1cccc(C(=O)N2CCN(C3CCN(Cc4ccccc4)CC3)CC2)c1OC | -5.2
CCCCOc1ccc(/C=N/NS(=O)(=O)c2ccc(OC)cc2)cc1OCC | 12.4
COc1ccc(OC)c(N/C(=N/S(=O)(=O)c2ccc(C)cc2)Nc2nc(C)cc(C)n2)c1 | -13.5

SMILES | displacement [%]
COc1ccc(OCC(=O)Nc2cc3oc4ccccc4c3cc2OC)cc1 | 2.9
COc1cc(C2CC(=O)Nc3c2ccc2ccccc32)cc(Cl)c1O (stereo not drawn) | -4.3
Cc1ccc(OCC(=O)n2cnnc2N)cc1 | 11.9
CCOc1cc(/C=N/Nc2nc(-c3ccccc3)cs2)ccc1O | -3.5
COc1ccc(OC)c(N(CC(=O)Nc2ccc3ccccc3c2)S(C)(=O)=O)c1 | 7.3
Cn1c(=O)c2c([nH]c(=S)n2Cc2ccccc2Cl)n(C)c1=O | 11.6
COc1ccc(S(=O)(=O)Nc2cccc([N+](=O)[O-])c2C)cc1 | 1.1
CCOC(=O)c1ccccc1NC(=O)CN(c1ccc(F)cc1)S(=O)(=O)c1ccccc1 | 0.6
CC(=O)N1c2ccccc2NC2=C(C(=O)CC(c3ccccc3)C2)C1c1cccc([N+](=O)[O-])c1 (stereo not drawn) | -9.3
CCOCCOC(=O)c1ccc(NC(=O)COc2ccc(C)cc2Br)cc1 | 15.4
O=C(Nc1ccc(N2CCCCC2)cc1)c1ccc([N+](=O)[O-])cc1 | 0.4
O=C1CCCc2oc3ccc(NS(=O)(=O)c4ccccc4)cc3c21 | 2.5
Cc1csc(NC(=O)c2ccc(Cl)c([N+](=O)[O-])c2)n1 | 4.5
Cc1cc(C)n2nc(C(=O)NCc3ccccc3)c(Br)c2n1 | -2
CC(=O)Nc1ccc(C(=O)N2CCN(c3ccc(F)cc3)CC2)cc1 | 3
Cc1cc(Cl)ccc1OCC(=O)Nc1sc(C)c(C)c1C(N)=O | 79.1
CN(CCOC(=O)c1ccccc1)C1=NS(=O)(=O)c2ccccc21 | -6.3
Cc1nn(-c2ccccc2)c(C)c1/C=N\NC(=O)c1cc(C(C)(C)C)[nH]n1 | -2
CC(=O)Nc1ccc(S(=O)(=O)Nc2ccccc2Br)cc1 | -2.9
CCOC(=O)c1ccc(NC2=CC(=O)CC(c3ccco3)C2)cc1 (stereo not drawn) | -6.9

Source: PubChem BioAssay AID1240 (Sanford-Burnham Center for Chemical Genomics, 2008)
